# The supplement of paper PMC3334620
# The full ranking holds about 33,000 sequences; the median of “E-score (-0.5 to 0.5)” is about -0.053, and the highest 2% start at about 0.37. This is one part of the list.
# Target: Hap1 (UniProt P0CE41)
# Test: PBM E-score (8-mer binding enrichment) (E-score (-0.5 to 0.5)); higher = stronger / more preferred TF binding; most listed sequences are background and not binding sites
# Conditions: protein concentration: 200 nM; construct: GST-DNA-binding domain
# Description: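 Universal 'all 10-mer' protein binding microarrays (Agilent AMADID 015681) probed with GST-tagged S. cerevisiae TFs (full-length or DBD) made by in vitro transcription/translation (PURExpress), about 100-200 nM. Bound TF was detected with fluorescent anti-GST. Each ungapped 8-mer (which stands for itself and its reverse complement) is scored by the PBM enrichment score (E-score), a modified Wilcoxon-Mann-Whitney statistic from -0.5 to +0.5, computed with the Universal PBM Analysis Suite. Scale: above 0.35 generally sequence-specific binding.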
# Sequence of UniProt P0CE41 (P0CE41 whole entry): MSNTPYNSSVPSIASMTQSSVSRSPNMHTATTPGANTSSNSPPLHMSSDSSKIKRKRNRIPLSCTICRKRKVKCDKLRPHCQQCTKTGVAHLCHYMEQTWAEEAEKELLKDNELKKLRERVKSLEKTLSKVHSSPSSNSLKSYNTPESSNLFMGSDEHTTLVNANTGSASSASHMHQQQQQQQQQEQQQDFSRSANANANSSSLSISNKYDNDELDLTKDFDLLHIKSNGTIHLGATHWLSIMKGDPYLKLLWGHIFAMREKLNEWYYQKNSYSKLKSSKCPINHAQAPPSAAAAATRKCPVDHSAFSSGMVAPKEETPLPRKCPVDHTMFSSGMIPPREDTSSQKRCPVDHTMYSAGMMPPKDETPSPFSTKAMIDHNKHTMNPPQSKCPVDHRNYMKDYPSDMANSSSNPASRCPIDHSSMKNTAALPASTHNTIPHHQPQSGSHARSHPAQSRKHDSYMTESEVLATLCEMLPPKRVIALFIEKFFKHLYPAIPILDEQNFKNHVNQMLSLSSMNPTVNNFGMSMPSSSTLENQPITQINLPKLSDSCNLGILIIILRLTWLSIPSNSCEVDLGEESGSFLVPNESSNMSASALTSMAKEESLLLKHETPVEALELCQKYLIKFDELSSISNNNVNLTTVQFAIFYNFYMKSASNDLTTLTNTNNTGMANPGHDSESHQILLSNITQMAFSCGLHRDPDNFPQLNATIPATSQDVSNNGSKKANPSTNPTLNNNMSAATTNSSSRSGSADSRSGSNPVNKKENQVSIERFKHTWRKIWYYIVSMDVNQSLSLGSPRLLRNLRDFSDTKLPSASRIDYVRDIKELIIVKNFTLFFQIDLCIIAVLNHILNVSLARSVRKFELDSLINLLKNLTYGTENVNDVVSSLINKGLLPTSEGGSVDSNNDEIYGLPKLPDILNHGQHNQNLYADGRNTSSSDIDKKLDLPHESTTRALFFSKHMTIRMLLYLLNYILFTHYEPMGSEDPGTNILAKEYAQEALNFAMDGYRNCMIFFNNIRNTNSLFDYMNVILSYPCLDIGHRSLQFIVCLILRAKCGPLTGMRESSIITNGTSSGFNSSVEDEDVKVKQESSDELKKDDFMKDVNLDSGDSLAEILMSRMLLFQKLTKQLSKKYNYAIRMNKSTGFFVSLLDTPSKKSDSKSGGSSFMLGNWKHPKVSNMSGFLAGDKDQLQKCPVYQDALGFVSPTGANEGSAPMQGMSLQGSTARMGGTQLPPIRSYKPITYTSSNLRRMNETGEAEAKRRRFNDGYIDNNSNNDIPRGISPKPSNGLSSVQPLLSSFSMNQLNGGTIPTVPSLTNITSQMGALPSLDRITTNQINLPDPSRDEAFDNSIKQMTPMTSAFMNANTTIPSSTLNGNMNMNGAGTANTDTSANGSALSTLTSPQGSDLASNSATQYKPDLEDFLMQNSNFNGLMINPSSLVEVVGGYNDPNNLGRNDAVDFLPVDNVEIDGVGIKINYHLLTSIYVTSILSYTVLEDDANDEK
row,Sequence,PBM E-score
1,GATATTGC,0.187
2,GCCGAAGC,0.288
3,AGGTGCCG,0.196
4,CCGTAGAG,-0.00236
5,CGCTAAAC,0.161
6,CAGTAAGC,-0.0562
7,ATGCCCAG,-0.0272
8,GTTCACCA,-0.136
9,AATTCATC,-0.0321
10,AGCCCCAG,-0.0767
11,AATGAGCA,-0.0376
12,GCGAAGAC,0.134
13,CGTTCTTC,-0.0849
14,GAAAACCC,0.132
15,TGCGTAAA,-0.0968
16,TATGCTCA,-0.0315
17,ATGTCCAA,-0.0231
18,CCTTGCAA,-0.308
19,GCTGTGAA,-0.184
20,ATTCAAAC,-0.0188
21,ACGGGAGA,-0.0781
22,CCCAACCA,-0.00113
23,ACAGGTTA,-0.297
24,AGTAGTCG,-0.0254
25,AGGAGTAC,-0.207

row,Sequence,PBM E-score
1,AATTTTAT,0.187
2,ACCAATGA,-0.187
3,CACCATTC,-0.213
4,ATAGTTGG,-0.217
5,AGTCCGAA,0.416
6,CCCAAGGG,-0.232
7,GTGACGAA,-0.168
8,ACCGGGAC,0.184
9,AATAAGAG,0.14
10,AGTGCCAT,-0.0559
11,GACCAATA,-0.0319
12,GCACTAGC,-0.00669
13,CCGCCCTC,0.0458
14,GGCTGCTA,-0.0615
15,CCGTCGGA,0.335
16,CAAGTTTC,-0.18
17,ACCATGCT,-0.0871
18,CTAGCTGC,-0.0293
19,ACCCACAA,-0.0145
20,GACTGACC,-0.135
21,AGAGCAGC,-0.271
22,TCCATTCA,-0.128
23,CAACTCGG,0.197
24,ATACGTCA,0.0245
25,AGCGGTCG,0.123

row,Sequence,PBM E-score
1,ATGTTCTA,-0.02
2,AAACTTGC,-0.0544
3,ACCTCCCA,-0.27
4,CCTTATTA,-0.0477
5,AAGGCATT,-0.24
6,AAAGGTGT,-0.0258
7,CAGGACTC,-0.181
8,CCCCAGAG,-0.261
9,ACCCACTC,0.00284
10,AATTGACT,-0.056
11,ATCGGCCA,0.253
12,ACCAGCCA,-0.222
13,CACGTACC,-0.172
14,GACGACGC,-0.0193
15,CGTGTCAC,-0.111
16,GCTTTCCC,0.0688
17,CTTGTACC,-0.086
18,TACAGCGA,-0.177
19,CGGGTGTA,0.354
20,AAATGGCT,-0.188
21,ATTCAATG,-0.0713
22,AAGGTTAC,-0.0661
23,ATCGTCTC,0.125
24,ACTACTAC,-0.0209
25,AGCTCGTA,-0.255

row,Sequence,PBM E-score
1,TGCATGCA,-0.0519
2,CGTGGCAC,-0.144
3,CAGAGTCC,0.0584
4,CCCAGCTC,0.0829
5,GAATCCTC,-0.0731
6,CCCTAGCC,-0.138
7,CTTTAGGC,-0.0579
8,ACGTACAA,-0.0674
9,GCCCGGCA,0.25
10,ATGACGCA,-0.147
11,CTCAACGA,-0.114
12,ATGGGAGG,-0.157
13,CTATTACC,0.119
14,ACGGGTAC,-0.113
15,GGGCTGAC,0.138
16,AAGTAGAG,-0.289
17,TAAAATGA,0.00088
18,CCAGTGGC,-0.175
19,AAGGTCGG,0.152
20,AGCTTCTA,-0.0403
21,AATAAGTG,-0.212
22,ACACATCT,-0.0207
23,CCCACTAA,0.00959
24,AGAAATGA,-0.239
25,TACCAGAA,-0.0124

row,Sequence,PBM E-score
1,ATGACCCC,0.061
2,CGTTCGAC,-0.0605
3,ACCGACTC,0.0952
4,AGACATAG,-0.0261
5,TCAATGAA,-0.123
6,ATTGCGCC,0.14
7,AGCGGCTA,0.0823
8,AGAACACA,-0.215
9,AGGTTAGC,-0.063
10,CTATGTGA,-0.203
11,CGAACATA,0.155
12,CAGTCAAG,-0.257
13,GGATCCCA,0.0514
14,GCACCTAC,-0.098
15,TAGACCAA,-0.201
16,CAGTGATG,-0.328
17,AAAAAATC,0.0109
18,GGGGGGAC,-0.203
19,CCGCTGAG,0.0237
20,ACTTGGAC,0.106
21,ACCTTCTC,-0.0081
22,ACCTGCCG,-0.0501
23,CGCGGCAA,0.223
24,GTACTTGA,-0.199
25,CCTCGTAG,-0.307

row,Sequence,PBM E-score
1,ACTACATG,-0.16
2,ATTTCATA,-0.114
3,GTCAGGCA,-0.182
4,CAGTCGGC,0.238
5,ACAAAGAG,-0.212
6,CGGATACG,0.228
7,ATCTACGG,0.299
8,CCAGCCAA,-0.0334
9,AGCTCACT,-0.218
10,AGTTCGTG,-0.0492
11,CGTTGCTA,-0.189
12,CTTAACGA,0.0142
13,CGTGTTGA,-0.00374
14,AGCTATCG,0.21
15,CGTAGTGC,0.0151
16,GATATGCC,0.171
17,CGAGAACA,0.164
18,GGAAGCCA,-0.0815
19,CCGTGGTC,0.0958
20,CCGCACCA,0.155
21,CCGAGCAA,0.344
22,CAGATAGA,-0.328
23,CCGGGAGA,0.29
24,CCCCAGTA,0.0524
25,CAATTTAC,-0.0319

row,Sequence,PBM E-score
1,GTCTTAAC,-0.117
2,CCAAGAGC,-0.212
3,ATAGGCTC,-0.0591
4,CCGAAACG,0.377
5,CGTCTTCA,-0.0155
6,ACGGGTGA,0.186
7,GCCCACGC,-0.0621
8,CATAATTC,0.085
9,ACGAGTCA,-0.321
10,AAATGTAC,0.00474
11,CGAAGAAA,0.138
12,TAAACTAA,-0.105
13,AGTGATCC,-0.0847
14,GATCCACA,-0.119
15,TGCCGGAA,0.365
16,AAATTCCG,0.376
17,GCTGTTTA,0.00593
18,GACGACTA,-0.237
19,ACACTATC,-0.158
20,TCACACCA,-0.194
21,CAGAATGC,-0.13
22,CCTCTCCA,-0.374
